Measurements reported in PubChem BioAssay AID485294 (National Center for Advancing Translational Sciences (NCATS), 2010).
Among all 370,000 compounds or so, about 150 (0.041%) were called active. The inconclusive results got no clear call from the source; some entries with a clear call stand among them for comparison. Calls follow the shape of the dose curve; as a rule, active = well fitted inhibition curve with a large enough effect; inconclusive = small, poorly fitted or top-dose-only effect; inactive = flat fitted curve, though single readings scatter. No potency is given beside an inconclusive call; the fits are too rough.
Also: nearly all actives have a fitted effect of over 25% in size.
Potency is read from the fitted curve at half-maximal effect; tags tell the direction and shape of the fitted curve.

These compounds were tested against Beta-lactamase (Escherichia coli (strain K12)) (UniProt P00811) (assay: qHTS Inhibitors of AmpC Beta-Lactamase (assay with detergent)). Settings: AmpC hydrolysis of nitrocefin, absorbance 480 nm, 0.01% Triton; series mostly up to 114 µM.
UniProt P00811, sequence (P00811 whole entry, looked up): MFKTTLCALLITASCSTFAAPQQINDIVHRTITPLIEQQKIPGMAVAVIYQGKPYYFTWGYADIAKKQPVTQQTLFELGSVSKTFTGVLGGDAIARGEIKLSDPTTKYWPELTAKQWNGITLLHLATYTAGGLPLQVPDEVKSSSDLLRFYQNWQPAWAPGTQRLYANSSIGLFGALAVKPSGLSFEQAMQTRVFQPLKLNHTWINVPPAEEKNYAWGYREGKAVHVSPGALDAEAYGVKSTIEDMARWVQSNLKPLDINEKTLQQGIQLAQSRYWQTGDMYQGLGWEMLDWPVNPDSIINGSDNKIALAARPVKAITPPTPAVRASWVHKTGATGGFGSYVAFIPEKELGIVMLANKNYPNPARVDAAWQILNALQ
Outline: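 20 mM phosphate pH 7.0 + 0.01% (detergent screen) or 0.0001% Triton X-100; 5.3 nM AmpC reagent; cpd preinc 15 min RT; nitrocefin (800 uM stock) to start; A480 q20 s × 4 min; Activity was normalised to no-enzyme and no-compound control wells.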
In the case of `COc1cc(C=Nc2c(C)cc(C)cc2C)ccc1OC(C)=O`, the Potency is reported as “inactive”. With `CCc1ccc(N(CC)c2ncnc3nc[nH]c23)cc1` the Potency was inconclusive [inhibitor, full curve, poor fit]. `CCN(CC)S(=O)(=O)c1ccc2c(c1)nc(SCC(=O)N1CCOCC1)n2-c1ccccc1OC` was tested, and the Potency was “inactive”. For `O=C(NNC(=O)C1CC2CCC1C2)c1ccccc1` (stereo not given), the Potency was inconclusive [inhibitor, single point]. For `COc1cccc(C(=O)Nc2ncc3c(n2)CC(C)CC3=O)c1` (stereo not given), the Potency was “inactive”. For `Cc1cccc(OCc2nnc(SCC(=O)NC3CCCC3)n2C)c1`, the Potency was inconclusive [inhibitor, full curve, poor fit]. `CCc1cccc(NC(=O)NC2CCCCC2)c1` was tested, and the Potency was inconclusive [inhibitor, full curve]. With `CCOc1ccccc1N1CCN(C(=O)c2ccccc2)CC1` the Potency was “inactive”. In the case of `O=C(COc1ccc(S(=O)(=O)N2CCOCC2)cc1Cl)NCCCn1ccnc1`, the Potency is reported as inconclusive [inhibitor, partial curve]. With `CCN(CC)S(=O)(=O)c1cc(C(=O)Nc2cc(C)on2)c(Cl)cc1Cl` the Potency was inconclusive [inhibitor, partial curve]. With `Cc1c(C)c2ccc(OC(C)C(=O)NCCc3c[nH]c4ccccc34)cc2oc1=O` (stereo not given) the Potency was inconclusive [inhibitor, partial curve, poor fit]. In the case of `COc1ccc(NC(=O)C2CCC(CNc3c(N4CCCCC4)c(=O)c3=O)CC2)cc1OC` (stereo not given), the Potency is reported as inconclusive [inhibitor, full curve, poor fit]. `CC(C)(C)NC(=O)C(c1ccco1)N(Cc1ccc(F)cc1)C(=O)c1snc(C(N)=O)c1N` (stereo not given) was tested, and the Potency was inconclusive [inhibitor, full curve]. `O=C(O)c1ccc(S(=O)(=O)N[C@@H](Cc2ccc(O)cc2)C(=O)O)cc1` was tested, and the Potency was inconclusive [inhibitor, full curve, poor fit]. With `CC(=O)Nc1ccc(S(=O)(=O)N(C)CC(=O)OCC(=O)N2CCCC2=O)cc1` the Potency was inconclusive [inhibitor, single point]. `CC(OC(=O)CCN=C1NS(=O)(=O)c2ccccc21)C(=O)N(C)C1CCCCC1` (stereo not given) was tested, and the Potency was inconclusive [inhibitor, full curve, poor fit]. For `O=C1/C(=C/c2ccccc2)CCCc2ccccc21`, the Potency was “inactive”. For `CCOc1ccccc1N(CC(=O)Nc1ccc(S(=O)(=O)N2CCCC2)cc1)S(C)(=O)=O`, the Potency was inconclusive [inhibitor, full curve, poor fit]. In the case of `CSc1ccc(CCNC(=O)c2cc3cc(S(=O)(=O)N4CCCCC4)ccc3n2C)cc1`, the Potency is reported as “inactive”. In the case of `C=CCN1c2ccccc2[C@]23C[C@@H](C(=O)OC)N(C(=O)C4CCC4)C2=NC(C(=O)OC)=C(C(=O)OC)[C@H]13`, the Potency is reported as “inactive”. `C/C(=N\NC(=O)c1ccc(C)cc1)C1C(=O)c2ccccc2C1=O` was tested, and the Potency was inconclusive [inhibitor, partial curve, poor fit]. `O=C(CN1C2CCC1CC(NC(=O)Nc1ccccc1)C2)NCc1ccco1` (stereo not given) was tested, and the Potency was inconclusive [inhibitor, full curve, poor fit]. For `CCCN1Cc2cccc(C(=O)N3CCN(c4cc(Cl)ccc4C)CC3)c2C1=O`, the Potency was inconclusive [inhibitor, full curve]. In the case of `CCOc1cc(C2NC(=O)NC(O)(C(F)(F)F)C2C(=O)c2ccc(Cl)cc2)ccc1O` (stereo not given), the Potency is reported as inconclusive [inhibitor, full curve, poor fit]. With `COc1ccc(OC)c(S(=O)(=O)n2cccn2)c1` the Potency was inconclusive [inhibitor, partial curve]. In the case of `O=C(COc1ccc2ccccc2c1)NCCn1ccc2ccccc21`, the Potency is reported as inconclusive [inhibitor, full curve]. In the case of `Cc1occc1-c1nnc(SCC(=O)Nc2nccs2)n1Cc1ccco1`, the Potency is reported as “inactive”. In the case of `O=C(Cn1cnc2ccccc21)N/N=C/c1ccccc1[N+](=O)[O-]`, the Potency is reported as inconclusive [inhibitor, full curve, poor fit]. In the case of `COc1ccc(NC(=O)CN2CCC(C)CC2)c([N+](=O)[O-])c1`, the Potency is reported as inconclusive [inhibitor, full curve]. With `CCN1CCN(CC(=O)Nc2nc3ccccc3s2)CC1` the Potency was inconclusive [inhibitor, full curve]. With `Cc1ccc(-n2cc(C(=O)c3cc(Cl)ccc3O)cc(C#N)c2=O)cc1` the Potency was inconclusive [inhibitor, partial curve, poor fit]. For `CN(c1ccccc1)S(=O)(=O)c1cccc(NC(=O)CSc2ncc(C(F)(F)F)cc2Cl)c1`, the Potency was inconclusive [inhibitor, full curve, poor fit]. In the case of `CCNC(=S)NNC(=O)c1cc(-c2ccc(OC)cc2)nc2ccccc12`, the Potency is reported as inconclusive [inhibitor, partial curve]. `O=c1c2ccccc2cnn1-c1ccc(Cl)cc1` was tested, and the Potency was inconclusive [inhibitor, single point]. In the case of `CC(=O)c1cccc(NC(=O)NCc2ccc3c(c2)OCO3)c1`, the Potency is reported as inconclusive [inhibitor, partial curve, poor fit]. With `O=C(Nc1ccccc1)c1ccc(S(=O)(=O)NCc2cccnc2)cc1` the Potency was inconclusive [inhibitor, full curve, poor fit]. `CC(=O)N1CCc2cc(S(=O)(=O)CCC(=O)N3CCN(C(=O)c4ccco4)CC3)ccc21` was tested, and the Potency was “inactive”. In the case of `Nc1ccc(OCC(O)C[n+]2ccc(CCS(=O)(=O)[O-])cc2)cc1` (stereo not given), the Potency is reported as inconclusive [inhibitor, partial curve, poor fit]. With `N=c1c(S(=O)(=O)c2ccc(Cl)cc2)cc2c(=O)n3ccccc3nc2n1C1CCCCC1` the Potency was “inactive”. For `CSc1nc(N)nc(SCCS(=O)(=O)c2ccc(Cl)cc2)c1C#N`, the Potency was “inactive”. For `Cc1cc(C(=O)CSc2nnc(-c3ccc(F)cc3)o2)c(C)n1CC1COc2ccccc2O1` (stereo not given), the Potency was inconclusive [inhibitor, full curve, poor fit]. `O=C(CCc1ccccc1)NNC(=O)C1CCCCC1` was tested, and the Potency was inconclusive [inhibitor, full curve]. For `O=C(CSc1ncnc2c1cnn2-c1ccccc1)NCC1CCCO1` (stereo not given), the Potency was inconclusive [inhibitor, full curve, poor fit]. For `COc1ccccc1N(C(=O)c1snc(C(N)=O)c1N)C(C(=O)NC1CCCC1)c1ccco1` (stereo not given), the Potency was “inactive”. For `COCCOC(=O)c1c(C)oc2ccc(NS(=O)(=O)c3ccccc3)cc12`, the Potency was inconclusive [inhibitor, full curve, poor fit]. `COc1ccc(CNCc2c(C(=O)O)n(Cc3ccc(F)cc3)c3cc(C)ccc23)cc1OC` was tested, and the Potency was “inactive”. `Cc1ccc(OCc2cc(C(=O)N(C)CCc3ccccn3)no2)cn1` was tested, and the Potency was “inactive”. For `Cc1ccc(C(=O)NC(N2CCCC2)C(Cl)(Cl)Cl)cc1` (stereo not given), the Potency was inconclusive [inhibitor, full curve, poor fit]. With `CC(C)Sc1nc2c(c(=O)[nH]1)C(c1cccs1)C1=C(CC(C)(C)CC1=O)N2` (stereo not given) the Potency was inconclusive [inhibitor, full curve, poor fit]. In the case of `COc1ccc(C(=O)/C=C/c2cn(CC(O)CN3CCOCC3)c3ccccc23)cc1` (stereo not given), the Potency is reported as “inactive”. For `CN1CCN(c2ccc(C(CC(N)=O)NC(=O)c3ccccc3)cc2[N+](=O)[O-])CC1` (stereo not given), the Potency was inconclusive [inhibitor, partial curve, poor fit]. `O=C(c1cc(-c2ccc(Cl)cc2)on1)N1CCN(c2ccc(F)cc2)CC1` was tested, and the Potency was inconclusive [inhibitor, full curve, poor fit]. In the case of `CNc1ncnc2c1ncn2[C@@H]1O[C@H](CO)[C@@H](O)[C@H]1O`, the Potency is reported as “inactive”. `CCOC(=O)N1CCN(c2ccc(C(=O)CC)cc2F)CC1` was tested, and the Potency was inconclusive [inhibitor, partial curve]. In the case of `CCCCCCCCNC(=O)/C(C#N)=C/c1ccc2c(c1)OCCO2`, the Potency is reported as inconclusive [inhibitor, partial curve, poor fit]. `CCOC(=O)c1ccc(N=c2sc(C(=O)OC)cc(=O)n2-c2ccc(C(=O)OCC)cc2)cc1` was tested, and the Potency was “inactive”. With `Cc1nn(-c2ccccc2)c2sc(C(=O)OC3CCOC3=O)cc12` (stereo not given) the Potency was inconclusive [inhibitor, partial curve, poor fit]. `CC(NC(=O)c1ccc(C(F)(F)F)cc1)C(c1ccccc1)N1CCOCC1` (stereo not given) was tested, and the Potency was inconclusive [inhibitor, full curve]. With `CS(=O)(=O)N(Cc1ccc(Cl)cc1)c1ccc(C(=O)N2CCN(c3ccccc3)CC2)cc1` the Potency was “inactive”. With `O=c1oc2c3c4c(cc2c(C(F)(F)F)c1CCN1CCOCC1)CCCN4CCC3` the Potency was inconclusive [inhibitor, full curve]. `CC(C)CC1C(C#N)=C(N)Oc2n[nH]c(-c3cccs3)c21` (stereo not given) was tested, and the Potency was inconclusive [inhibitor, full curve, poor fit]. `O=C(Cc1cnn(-c2ccccc2)c1)c1ccc(O)c(O)c1O` was tested, and the Potency was “inactive”. With `Cc1cccc(-c2noc(CNC(=O)c3ccccc3Br)n2)c1` the Potency was “inactive”. In the case of `Fc1ccc(OCCCCCN2CCCC2)cc1`, the Potency is reported as inconclusive [inhibitor, single point]. For `Cc1ccc(SCc2[nH]nc3c2C(c2cccnc2)C(C#N)=C(N)O3)cc1` (stereo not given), the Potency was inconclusive [inhibitor, partial curve, poor fit].
